Laboratory results as given in publication PMC11844742, “Structural basis of aquaporin-4 autoantibody binding in neuromyelitis optica” (Science Advances, 2025).

Target: the molecule itself
Experiment: cryo-EM structure; AQP4 M1 alone in MSP1E3D1 nanodiscs, 0.3 uM; C4 symmetry imposed; 2.1 A

B1: human aquaporin-4 (AQP4) isoform M1, full length, tetramer in MSP1E3D1 lipid nanodiscs (natural protein)
chain: not shown
notes: aquaporin-4, human, isoform M1, full length ([…]); synthesized gene in pPICZ; a thrombin cleavage site lies between the tags and the protein; Homo-tetramer embedded in a nanodisc (soybean polar lipids, MSP1E3D1); for BLI the MSP 1E3D1 was biotinylated; also called AQP4 M1; M1 tetramer; not shown: 8xHis, N-terminal, kept
For B1, the “stoichiometry N” value was 4.
